≈ marks a conversion by molar mass, not a printed value. Calls of active or inactive are those of the source. The rule behind the calls is not given here.
Experiments:
[1] = target: Bcl-2-like protein 1 (Homo sapiens) (UniProt Q07817); conditions: 100 uM
SU-DHL10 = assay: Induction of mitochondrial membrane depolarization in human SU-DHL10 cells by fluorescence assay; format: functional, cell-based
Outline: (§1)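 BH3 profiling: 2.5 × 10⁴ cells per well with 100 µM BH3 peptide (Bim, Puma, Noxa, Bad), 1 µM JC-1 and 0.005% digitonin, in duplicate wells. Percent priming was derived from AUC relative to CCCP (positive) and DMSO (negative) controls. Two independent assays in triplicate (n=6).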

SU-DHL-6 [2] = assay: Induction of mitochondrial membrane depolarization in human SU-DHL6 cells by fluorescence assay; format: functional, cell-based
Outline: as §1

A-375 = assay: Antiproliferative activity against human A375 cells assessed as cell viability after 48 hrs by PrestoBlue staining-based assay; format: functional; conditions: A-375, 48 h
Outline: (§2)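 Cells plated at 2.5 × 10⁵ cells/mL and treated with seven 2-fold dilutions of compound (top concentration 5 µM or 20 µM), with DMSO dilutions (top 0.2%) and cells-only and media-only wells as controls. Incubated for 48 h at 37°C, then read with PrestoBlue. Media background was subtracted and viability normalized to cells-only wells (100%) to give EC₅₀.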

[3] = Antiproliferative activity against human SU-DHL6 cells assessed as cell viability after 48 hrs by PrestoBlue staining-based assay; format: functional; conditions: SU-DHL-6, 48 h
Outline: as §2

Bcl2-1863 [4] = assay: Induction of apoptosis in mouse Bcl2-1863 cells at 0.125 to 0.5 uM after 24 hrs by DAPI staining-based fluorescence microscopy; format: functional, cell-based
Outline: (§3)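 Seeded at 2 × 10⁵ cells/ml with DMSO (0.1%), navitoclax (5, 2.5, 1.25, 0.625 µM) or test compound (1000, 500, 250, 125 nM) for 24 h at 37°C. Fixed in 100% methanol on ice for 10 min and mounted with DAPI. At least 100 cells were scored as normal or apoptotic (pyknotic, fragmented) nuclei. DMSO was the negative control; navitoclax 5 µM on Bcl2-1863 was the positive control.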

Mcl1-1780 [5] = assay: Induction of mitochondrial membrane depolarization in mouse Mcl1-1780 cells assessed as cytochrome c release at 20 uM after 2 hrs by DAPI staining-based fluorescence microscopy; format: functional, cell-based
Outline: (§4)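 Cells washed in PBS and resuspended at 2 × 10⁶ cells/ml, then exposed to compound (20 µM), 0.2% DMSO, or Bim/Puma peptides (100 µM) for 2 h at room temperature. Fixed in 4% formaldehyde, blocked and permeabilised (2% FBS, 0.5% Triton X-100), and stained with anti-cytochrome c-Alexa488 for 2 h at 4°C. Mounted with DAPI; at least 100 cells scored for cytochrome c loss. DMSO set as 0%; SUDHL-6 Bim response set as 100%.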

Mcl1-1780 [6] = assay: Induction of apoptosis in mouse Mcl1-1780 cells after 16 hrs by Annexin V staining-based flow cytometry
TF-1 = assay: Antiproliferative activity against human TF1 cells assessed as cell viability after 48 hrs by PrestoBlue staining-based assay; format: functional; conditions: TF-1, 48 h
Outline: as §2

A549 = assay: Antiproliferative activity against human A549 cells assessed as cell viability after 48 hrs by PrestoBlue staining-based assay; format: functional; conditions: A549, 48 h
Outline: as §2

[7] = Antiproliferative activity against human ML2 cells assessed as cell viability after 48 hrs by PrestoBlue staining-based assay; format: functional; conditions: ML-2, 48 h
Outline: as §2

PANC-1 = assay: Antiproliferative activity against human PANC1 cells assessed as cell viability after 48 hrs by PrestoBlue staining-based assay; format: functional; conditions: PANC-1, 48 h
[8] = Antiproliferative activity against mouse Bcl2-1863 cells assessed as cell viability after 48 hrs by PrestoBlue staining-based assay; format: functional; conditions: Bcl2-1863, 48 h
Outline: as §2

CYP3A4 = CYP3A4 (Homo sapiens, UniProt P08684); assay: Inhibition of CYP3A4 (unknown origin) at 10 uM; format: ADME
UniProt P08684, sequence (P08684 whole entry): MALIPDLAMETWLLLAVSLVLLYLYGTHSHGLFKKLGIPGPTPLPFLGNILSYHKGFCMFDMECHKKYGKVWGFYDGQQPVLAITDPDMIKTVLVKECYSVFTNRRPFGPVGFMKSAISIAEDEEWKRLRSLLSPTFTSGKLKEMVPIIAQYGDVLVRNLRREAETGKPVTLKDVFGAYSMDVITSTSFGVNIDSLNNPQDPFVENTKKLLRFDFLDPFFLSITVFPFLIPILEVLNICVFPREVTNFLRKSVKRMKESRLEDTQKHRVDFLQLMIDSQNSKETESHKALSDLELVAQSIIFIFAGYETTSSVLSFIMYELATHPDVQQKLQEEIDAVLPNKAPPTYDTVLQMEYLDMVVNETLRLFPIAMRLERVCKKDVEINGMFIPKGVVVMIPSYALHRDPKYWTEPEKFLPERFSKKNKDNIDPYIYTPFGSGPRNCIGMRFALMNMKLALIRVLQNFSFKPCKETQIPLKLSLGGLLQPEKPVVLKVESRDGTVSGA

Bcl2-1863 [9] = assay: Induction of mitochondrial membrane depolarization in mouse Bcl2-1863 cells assessed as cytochrome c release at 20 uM after 2 hrs by DAPI staining-based fluorescence microscopy; format: functional, cell-based
Outline: as §4

[10] = Solubility of the compound in DMEM in presence of 10% FBS; format: physicochemical; conditions: DMEM with 10% FBS
[11] = Antiproliferative activity against mouse Mcl1-1780 cells assessed as cell viability after 48 hrs by PrestoBlue staining-based assay; format: functional; conditions: Mcl1-1780, 48 h
Outline: as §2

Bcl2-1863 [12] = assay: Induction of apoptosis in mouse Bcl2-1863 cells at 0.625 to 2.5 uM after 24 hrs by DAPI staining-based fluorescence microscopy; format: functional, cell-based
Outline: as §3

Liver = assay: Half life in mouse liver microsomes; format: ADME, Microsome
Mcl1-1780 [13] = assay: Induction of apoptosis in mouse Mcl1-1780 cells at 0.125 to 0.5 uM after 24 hrs by DAPI staining-based fluorescence microscopy; format: functional, cell-based
Outline: as §3

[14] = Solubility of the compound in phosphate buffer saline at pH 7.4; format: physicochemical
Mcl1-1780 [15] = assay: Induction of apoptosis in mouse Mcl1-1780 cells at 0.625 to 2.5 uM after 24 hrs by DAPI staining-based fluorescence microscopy; format: functional, cell-based
Outline: as §3

HL-60 = assay: Antiproliferative activity against human HL60 cells assessed as cell viability after 48 hrs by PrestoBlue staining-based assay; format: functional; conditions: HL-60, 48 h
Outline: as §2

CYP2D6 = CYP2D6 (Homo sapiens, UniProt P10635); assay: Inhibition of CYP2D6 (unknown origin) at 10 uM; format: ADME
UniProt P10635, sequence (P10635 whole entry): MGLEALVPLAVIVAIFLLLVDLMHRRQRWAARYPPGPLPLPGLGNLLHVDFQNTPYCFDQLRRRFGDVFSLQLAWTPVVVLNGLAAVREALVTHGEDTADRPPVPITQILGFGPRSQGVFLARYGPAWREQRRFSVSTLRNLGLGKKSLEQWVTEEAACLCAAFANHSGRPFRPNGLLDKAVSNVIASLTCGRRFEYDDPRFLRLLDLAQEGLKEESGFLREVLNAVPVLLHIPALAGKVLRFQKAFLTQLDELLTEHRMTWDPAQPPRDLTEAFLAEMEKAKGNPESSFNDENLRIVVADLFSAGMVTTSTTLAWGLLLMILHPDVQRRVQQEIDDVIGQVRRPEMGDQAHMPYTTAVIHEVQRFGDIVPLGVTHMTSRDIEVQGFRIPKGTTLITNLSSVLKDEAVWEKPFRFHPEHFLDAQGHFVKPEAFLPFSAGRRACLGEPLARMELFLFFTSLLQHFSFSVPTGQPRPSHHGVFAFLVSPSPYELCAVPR

MOLM-13 = assay: Antiproliferative activity against human MOLM13 cells assessed as cell viability after 48 hrs by PrestoBlue staining-based assay; format: functional; conditions: MOLM-13, 48 h
NCI-H187 = assay: Antiproliferative activity against human NCI-H187 cells assessed as cell viability after 48 hrs by PrestoBlue staining-based assay; format: functional; conditions: NCI-H187, 48 h
Outline: as §2

CYP2C9 = CYP2C9 (Homo sapiens, UniProt P11712); assay: Inhibition of CYP2C9 (unknown origin) at 10 uM; format: ADME
UniProt P11712, sequence (P11712 whole entry): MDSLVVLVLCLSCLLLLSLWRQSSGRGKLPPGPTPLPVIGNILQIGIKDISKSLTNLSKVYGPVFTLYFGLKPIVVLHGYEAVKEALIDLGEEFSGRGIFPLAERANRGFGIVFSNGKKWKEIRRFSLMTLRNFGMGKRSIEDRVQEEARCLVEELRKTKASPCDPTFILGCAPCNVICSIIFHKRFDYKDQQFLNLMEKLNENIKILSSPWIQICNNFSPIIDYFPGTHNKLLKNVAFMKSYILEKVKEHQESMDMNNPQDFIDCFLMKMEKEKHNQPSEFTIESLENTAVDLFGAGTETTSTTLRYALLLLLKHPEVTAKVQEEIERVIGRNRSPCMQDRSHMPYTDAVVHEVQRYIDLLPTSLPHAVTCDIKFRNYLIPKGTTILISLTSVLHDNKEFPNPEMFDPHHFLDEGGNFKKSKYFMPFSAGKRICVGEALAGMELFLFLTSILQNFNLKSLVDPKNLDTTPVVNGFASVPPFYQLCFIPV

[16] = Antiproliferative activity against human NCI-H929 cells assessed as cell viability after 48 hrs by PrestoBlue staining-based assay; format: functional; conditions: NCI-H929, 48 h
Outline: as §2

SU-DHL-6 [17] = assay: Induction of mitochondrial membrane depolarization in human SU-DHL6 assessed as cytochrome c release at 20 uM after 2 hrs by DAPI staining-based fluorescence microscopy; format: functional
Outline: as §4

[18] = Half life of the compound in PBS at 10 uM; format: physicochemical
Liver microsomes = assay: Half life in human liver microsomes; format: ADME, Microsome
Bcl2-1863 [19] = assay: Induction of apoptosis in mouse Bcl2-1863 cells after 16 hrs by Annexin V staining-based flow cytometry
[20] = Antiproliferative activity against human SU-DHL10 cells assessed as cell viability after 48 hrs by PrestoBlue staining-based assay; format: functional; conditions: SU-DHL10, 48 h
Outline: as §2

CYP1A2 = target: T1, CYP1A2 (Homo sapiens, UniProt P05177); assay: Inhibition of CYP1A2 (unknown origin) at 10 uM; format: ADME
T1 sequence (P05177 whole entry): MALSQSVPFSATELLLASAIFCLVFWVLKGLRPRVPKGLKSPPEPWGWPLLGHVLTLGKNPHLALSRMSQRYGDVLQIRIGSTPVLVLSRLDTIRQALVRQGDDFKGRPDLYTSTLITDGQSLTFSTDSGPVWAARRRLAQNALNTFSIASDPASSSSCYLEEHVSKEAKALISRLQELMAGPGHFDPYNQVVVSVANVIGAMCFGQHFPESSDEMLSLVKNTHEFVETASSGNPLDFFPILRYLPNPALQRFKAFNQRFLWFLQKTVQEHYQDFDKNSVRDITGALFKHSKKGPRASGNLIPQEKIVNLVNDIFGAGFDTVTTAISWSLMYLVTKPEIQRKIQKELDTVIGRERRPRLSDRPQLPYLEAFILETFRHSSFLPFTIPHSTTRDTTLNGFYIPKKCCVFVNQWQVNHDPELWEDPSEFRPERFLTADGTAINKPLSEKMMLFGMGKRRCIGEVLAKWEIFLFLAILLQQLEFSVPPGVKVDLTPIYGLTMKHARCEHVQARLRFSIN

UniProt Q07817, sequence (Q07817 whole entry): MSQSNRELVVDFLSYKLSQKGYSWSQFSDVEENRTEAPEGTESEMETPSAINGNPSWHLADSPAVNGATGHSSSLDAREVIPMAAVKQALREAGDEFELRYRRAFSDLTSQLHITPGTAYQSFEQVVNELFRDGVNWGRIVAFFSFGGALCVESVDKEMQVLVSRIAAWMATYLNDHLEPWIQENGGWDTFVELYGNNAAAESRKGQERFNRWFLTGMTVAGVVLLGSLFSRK

O=C(O)COc1ccccc1C(Nc1ccccn1)c1cc(Cl)c2cccnc2c1O (stereo not drawn)
inhibition [1]: inactive

CSCC[C@H](NC(=O)[C@H](CCCNC(=N)N)NC(=O)[C@H](CCCNC(=N)N)NC(=O)[C@H](CC(C)C)NC(=O)[C@H](CCC(=O)O)NC(=O)[C@H](CCCNC(=N)N)NC(=O)CNC(=O)[C@H](Cc1ccc(O)cc1)NC(=O)[C@H](CCCNC(=N)N)NC(=O)[C@H](CCC(N)=O)NC(=O)[C@H](C)NC(=O)[C@H](C)NC(=O)[C@H](Cc1c[nH]c2ccccc12)NC(=O)[C@@H](N)CC(C)C)C(=O)N[C@@H](CO)C(=O)N[C@@H](CC(=O)O)C(=O)N[C@@H](CCC(=O)O)C(=O)N[C@@H](Cc1ccccc1)C(=O)N[C@@H](CCC(=O)O)C(=O)NCC(=O)N[C@@H](CO)C(=O)N[C@@H](Cc1ccccc1)C(=O)N[C@@H](CCCCN)C(=O)NCC(=O)N[C@@H](CC(C)C)C(=O)O
Activity (SU-DHL10): Active | Activity (SU-DHL-6 [2]): Active

CCN1CCN(C(c2ccc(C(F)(F)F)cc2)c2cc(Cl)c3cccnc3c2O)CC1 (stereo not drawn)
EC50 (A-375): 7.1 µM | EC50 [3]: 3.3 µM | Activity (Bcl2-1863 [4]): Active | Activity (Mcl1-1780 [5]): Active | Activity (Mcl1-1780 [6]): Dose-dependent effect | EC50 (TF-1): 4.8 µM | EC50 (A549): 14.1 µM | EC50 [7]: 5.2 µM | EC50 (PANC-1): 14.5 µM | EC50 [8]: 1.1 µM | inhibition at 10 µM (CYP3A4): 14% | Activity (Bcl2-1863 [9]): Active | solubility [10]: 20 µM | EC50 [11]: 0.3 µM | Activity (Bcl2-1863 [12]): Active | t1/2 (Liver): 0.667 h | Activity (Mcl1-1780 [13]): Active | solubility [14]: 2.7 µM (≈ 1.21 µg/mL) | Activity (Mcl1-1780 [15]): Active | EC50 (HL-60): 6.3 µM | inhibition at 10 µM (CYP2D6): 43% | EC50 (MOLM-13): 7 µM | EC50 (NCI-H187): 9.5 µM | inhibition at 10 µM (CYP2C9): 24% | EC50 [16]: 1.6 µM | Activity (SU-DHL-6 [17]): Active | half-life at 10 µM [18]: 10 h | t1/2 (Liver microsomes): 0.917 h | Activity (Bcl2-1863 [19]): Dose-dependent effect | EC50 [20]: 25 µM | inhibition at 10 µM (CYP1A2): 29%

CC[C@H](C)[C@H](NC(=O)[C@H](CCC(=O)O)NC(=O)[C@H](CCCNC(=N)N)NC(=O)[C@H](C)NC(=O)[C@H](Cc1c[nH]c2ccccc12)NC(=O)[C@H](CCC(N)=O)NC(=O)[C@H](CCC(=O)O)NC(=O)[C@@H](N)CCC(=O)O)C(=O)NCC(=O)N[C@@H](C)C(=O)N[C@@H](CCC(N)=O)C(=O)N[C@@H](CC(C)C)C(=O)N[C@@H](CCCNC(=N)N)C(=O)N[C@@H](CCCNC(=N)N)C(=O)N[C@@H](CCSC)C(=O)N[C@@H](C)C(=O)N[C@@H](CC(=O)O)C(=O)N[C@@H](CC(=O)O)C(=O)N[C@@H](CC(C)C)C(=O)N[C@@H](CC(N)=O)C(=O)N[C@@H](C)C(=O)N[C@@H](CCC(N)=O)C(=O)N[C@@H](Cc1ccc(O)cc1)C(=O)N[C@@H](CCC(=O)O)C(=O)N[C@@H](CCCNC(=N)N)C(=O)O
Activity (SU-DHL10): Active | Activity (SU-DHL-6 [2]): Active

H-PAELEVECATQLRRFGDKLNFRQKLL-OH
Activity (SU-DHL10): Active | Activity (SU-DHL-6 [2]): Active
